# Results: PubChem BioAssay AID488969 (Vanderbilt High Throughput Screening Facility, 2010)
# In all, about 110,000 compounds were measured (“z-score”: median about -0.1, highest 2% from about 2 on). This is one part of the list.
# Target: Metabotropic glutamate receptor 8 (Rattus norvegicus) (UniProt P70579)
# Test: rat mGluR8 modulators via GIRK flux, primary screen, cell-based, thallium flux, HTS (AID 488969)
# Conditions: HEK293 rat mGluR8, GIRK (G protein-gated inwardly rectifying potassium channel) thallium flux, FluoZin2; at 10 µM; stronger effect = higher value; submaximal glutamate (EC20) added with thallium
# Chain of UniProt P70579 (P70579 whole entry, looked up): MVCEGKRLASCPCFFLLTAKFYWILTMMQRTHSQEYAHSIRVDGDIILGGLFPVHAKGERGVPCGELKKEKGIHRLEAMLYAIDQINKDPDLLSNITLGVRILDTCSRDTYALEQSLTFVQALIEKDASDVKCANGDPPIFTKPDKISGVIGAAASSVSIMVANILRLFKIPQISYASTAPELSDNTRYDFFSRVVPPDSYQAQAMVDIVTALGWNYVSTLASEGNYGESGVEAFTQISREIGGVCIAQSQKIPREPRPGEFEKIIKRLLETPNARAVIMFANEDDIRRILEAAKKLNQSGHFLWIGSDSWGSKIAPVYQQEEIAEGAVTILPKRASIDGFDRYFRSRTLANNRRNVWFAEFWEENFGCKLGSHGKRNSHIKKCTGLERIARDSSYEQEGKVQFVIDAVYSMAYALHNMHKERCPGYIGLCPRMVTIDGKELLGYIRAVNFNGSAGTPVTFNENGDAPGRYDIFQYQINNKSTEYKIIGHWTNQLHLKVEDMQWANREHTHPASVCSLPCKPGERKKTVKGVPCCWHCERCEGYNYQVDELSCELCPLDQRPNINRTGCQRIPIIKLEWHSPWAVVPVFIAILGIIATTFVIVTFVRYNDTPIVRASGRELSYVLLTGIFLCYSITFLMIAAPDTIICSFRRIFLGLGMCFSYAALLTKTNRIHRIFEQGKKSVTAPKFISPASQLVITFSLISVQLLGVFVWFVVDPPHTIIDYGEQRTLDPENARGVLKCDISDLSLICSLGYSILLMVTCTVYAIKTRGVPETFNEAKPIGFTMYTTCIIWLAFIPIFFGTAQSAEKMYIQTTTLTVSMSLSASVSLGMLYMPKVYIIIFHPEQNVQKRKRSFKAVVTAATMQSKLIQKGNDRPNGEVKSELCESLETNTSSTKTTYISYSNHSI
row,Structure (SMILES),z-score
1,COc1ccc(/C=N/NS(=O)(=O)c2ccccc2)cc1OC(=O)c1ccc(C)cc1,-0.389
2,O=C(O)c1ccc(COc2ccc(Cl)cc2)o1,-0.229
3,CCCNC(=O)CS(=O)Cc1nc(-c2cccc(OC)c2)oc1C (centres undefined),0.115
4,O=S(=O)(NCC(c1ccco1)N1CCN(c2ccccc2)CC1)c1ccc(F)cc1 (centres undefined),0.133
5,O=C(c1ccc(Cl)cc1)c1ccc(OCC(O)CN2CCCCC2)cc1 (centres undefined),1.56
6,COc1cccc2cc(C(=O)N(C)C3CCN(C)CC3)c(=O)oc12,-0.0112
7,COCCn1c(SCC(=O)NCc2ccco2)nnc1C(C)C,0.369
8,Cc1occc1-c1nnc(SCC(=O)Nc2nccs2)n1CCc1ccccc1,-2.74
9,COC(=O)CSc1nnc(-c2ccncc2)n1N,0.0257
10,CN(C)c1ccc(C(=O)c2ccccc2)cc1,0.00483
11,COc1ccccc1OCC(=O)Nn1c(=S)[nH]c2ncccc2c1=O,1.87
12,COCCNc1nc(SCc2ccccc2)nc2sc3c(c12)CCC3,0.854
13,Cc1cc(C)cc(N(CC(=O)NCc2ccco2)S(=O)(=O)c2c(C)noc2C)c1,-0.278
14,CC(C)(C)c1ccc(S(=O)(=O)NCc2ccc(C(=O)N3CCOCC3)cc2)cc1,-0.704
15,O=C(NC12CC3CC(CC(C3)C1)C2)c1ccc(-c2ccc(Cl)cc2)o1,-0.444
16,CNC(=S)NNC(=O)c1sccc1OCc1ccc(C)cc1,-0.339
17,COC(=O)c1ccc(-c2nn(C)c(=O)c3ccccc23)cc1,-0.125
18,O=C(C1Cc2ccccc2CN1S(=O)(=O)c1cccs1)N1CCCCCC1 (centres undefined),-0.0293
19,CC(=O)c1ccc(Sc2nnnn2-c2ccccc2)c([N+](=O)[O-])c1,-0.166
20,COc1ccccc1CNS(=O)(=O)c1cccc(S(=O)(=O)N2CCOCC2)c1,0.49
21,O=C(/C=C/c1ccccc1F)c1ccoc1,-0.0402
22,CC(CCc1ccc(O)cc1)NC1C2CC3CC(C2)CC1C3 (centres undefined),0.0712

row,Structure (SMILES),z-score
1,CCN(C(=O)CSc1ccc2c(c1)OCCO2)C1CCS(=O)(=O)C1 (centres undefined),1.48
2,CNC(=O)C1CC(=O)N(Cc2ccc(OC)c(OC)c2)C(=Nc2ccc(OC)cc2)S1 (centres undefined),-0.199
3,CCc1ccc(C2=NN(CCC(=O)NC3CC3)C(=O)CC2)cc1,0.0546
4,NC(=O)C1(N2CCCCC2)CCN(CC(=O)Nc2cc(Cl)ccc2Cl)CC1,0.943
5,O=C(NCCc1cccs1)C1CC(c2ccc([N+](=O)[O-])cc2)=NO1 (centres undefined),-0.122
6,CC1(C)Cc2noc(N)c2C(C)(C)N1O,-0.062
7,CN(c1ccccc1C(=O)N1CCCC1)S(C)(=O)=O,0.0147
8,O=C(COC(=O)COc1ccccc1[N+](=O)[O-])Nc1ccccc1Br,-0.59
9,CCn1nnc(NC(=O)c2c(OC)cccc2OC)n1,-0.842
10,Cc1cc(C)c2nc(C(F)(F)F)nc(NCCCN3CCOCC3)c2c1,-0.573
11,COc1ccc(-c2csc(C3=C(O)CN(Cc4ccc(S(N)(=O)=O)cc4)C3=N)n2)cc1OC,1.13
12,CCOC(=O)c1c(NC(=O)C2CCN(S(=O)(=O)c3ccc(Cl)cc3)CC2)sc2c1CCCC2,0.0212
13,Cc1cc(C(=O)O)c(CSCc2cc(C(=O)O)oc2C)o1,-0.129
14,CCOC(=O)N1CCN(C(=O)CN(c2cc(C(F)(F)F)ccc2Cl)S(C)(=O)=O)CC1,0.421
15,COc1ccc(/C=C/C(=O)c2ccc(O)cc2)cc1CN1CCOCC1,0.0326
16,O=C(COC(=O)c1cc(Br)c(Br)s1)NCCC1=CCCCC1,0.0854
17,NC(=O)COC(=O)CCCc1nc2ccccc2s1,0.269
18,Cn1cc(/C=C2\SC(=O)N(c3ccccc3)C2=O)c2ccccc21,-0.469
19,COC(=O)CSc1nc(N)c2c3c(sc2n1)C(c1ccccc1)SC(c1ccccc1)C3 (centres undefined),0.318
20,CC(=O)C1=C(C)OC(N)=C(C#N)C1c1cc2cc(C)c(C)cc2nc1Cl (centres undefined),-0.284
21,Cc1cccc2cc3c(N)c(C(=O)N4CCCc5ccccc54)sc3nc12,-0.135
22,O=C(CN1C(=O)S/C(=C\c2ccccc2)C1=O)NNC(=O)c1ccccc1O,-0.409

row,Structure (SMILES),z-score
1,O=c1nc(N2CCOCC2)nc2n1CCO2,0.234
2,Cc1cc(N)n2nc(-c3ccc(C(C)(C)C)cc3)cc2n1,-0.0328
3,CC(=O)c1sc(NC(=O)CN2C(=O)CCC2=O)nc1C,0.288
4,O=C(O)CCN1/C(=C/C=Nc2ccccc2)Oc2ccccc21,-0.32
5,CCOC(=O)N1CCC(Nc2ccc3nnc(-c4ccccc4)n3n2)CC1,-0.665
6,COc1ccc(S(=O)(=O)N2CCCCC2)cc1NC(=S)Nc1ccccc1,-0.00191
7,COc1ccc(-n2nc(C(=O)O)nc2-c2ccccc2)cc1,-0.0709
8,O=C(NCc1ccco1)c1nnc(Cc2ccc(Cl)cc2)o1,0.217
9,CC1=C(C(=O)OCc2ccccc2)C(/C=C/c2ccccc2)NC(=S)N1 (centres undefined),-0.173
10,Cc1ccc(-c2nc3ccccn3c2NC(=O)c2ccco2)cc1,0.65
11,COc1ccc(C(C)=O)cc1CSc1nnc(C)n1-c1ccccc1,0.0069
12,CC(Cc1ccccc1)NC(=O)C1(c2ccccc2)CCOCC1 (centres undefined),-0.096
13,C/C(=N\NC(=O)C1CCCN(S(=O)(=O)c2ccccc2)C1)c1ccncc1 (centres undefined),-0.155
14,O=C(COC(=O)CC(c1ccccc1)c1ccccc1)Nc1cccc(F)c1,-0.211
15,COCCn1c(=NC(=O)c2nc3ccccc3s2)sc2cc(S(C)(=O)=O)ccc21,0.125
16,CC(C)(C)n1c(=O)[nH]c2c(c1=O)CCC2,-0.464
17,COc1ccc(NC(=O)C2c3cc(OC)c(OC)cc3C(=O)N(C)C2c2cccnc2)cc1OC (centres undefined),0.738
18,NC(=O)c1sc(=S)n(-c2ccc(Br)cc2)c1N,0.583
19,CCOC(=O)CSC1=Nc2ccccc2C2=NC(CC(=O)NCc3ccccc3)C(=O)N12 (centres undefined),2.91
20,Cc1ccc(-c2noc(CCC(=O)Nc3ccc(C)cn3)n2)cc1,0.185
21,CCCCOc1cccc(C2(C(=O)O)CCCC2)c1,-0.346
22,O=C1[C@@H]2[C@H](C(=O)N1n1cnnc1)[C@H]1C=C[C@@H]2C1,0.215

row,Structure (SMILES),z-score
1,Cc1cccc(NC(=O)c2sc(Cl)nc2C)c1C,0.181
2,CCOC(=O)Cc1csc(NC(=O)CSc2nnc(Cc3csc(N)n3)n2C)n1,-0.281
3,O=C(NCCc1ccccn1)C(F)(F)C(F)(F)C(F)(F)C(F)(F)C(F)(F)C(F)(F)C(F)(F)C(F)F,-0.304
4,CCN(CC)S(=O)(=O)c1ccc(NC(=O)COC(=O)CN2C(=O)c3ccccc3C2=O)cc1,-0.531
5,COc1ccc(S(=O)(=O)NCc2ccc(C(=O)N(C)Cc3ccco3)cc2)cc1,-0.126
6,Cc1cc(C)n(CC(O)COc2cccc(OCC(O)Cn3nc(C)cc3C)c2)n1 (centres undefined),1.67
7,CC1CN(S(=O)(=O)c2cccc(C(=O)NN3CCN(C)CC3)c2)CC(C)O1 (centres undefined),-0.128
8,N#Cc1nc(COc2ccc(Br)cc2)oc1N1CCN(Cc2ccccc2)CC1,-0.248
9,FC(F)(F)c1cc(-c2cccs2)nc(-n2cc(Br)cn2)n1,-0.203
10,CC(C)c1nc(SCC(=O)N2CCCC2)c2ccccc2n1,-0.322
11,O=C(O)Cn1nnnc1-c1ccc(F)cc1,0.777
12,N#CCc1nn(-c2ccccc2)c(N)c1C#N,-0.151
13,CN1C(=O)CSC1=NCC12CC3CC(CC(C3)C1)C2,-0.123
14,COc1ccc(NC(=O)C(c2ccccc2)N(C)C(=O)c2ccc(=O)[nH]c2)cc1 (centres undefined),-0.215
15,CCOc1cc(/C=C2/C(=O)N(c3ccccc3)N=C2C)ccc1OC(=O)c1ccco1,-0.0716
16,CCOC(=O)c1c(C)[nH]c(C)c1C(=O)COC(=O)[C@@H](NC(=O)c1ccccc1OCC)C(C)C,0.596
17,CCn1c(SCc2ccc(C)cc2)nnc1-c1nn(-c2ccccc2)ccc1=O,-0.34
18,CCOc1ccc2ccccc2c1C(=O)N1CCN(c2ccccc2)CC1,0.245
19,Cc1cc(C(=O)NNC(=S)NC(C)c2ccccc2)c2ccccc2n1 (centres undefined),0.0101
20,COC(=O)C1=C(C)N(c2ccc(S(N)(=O)=O)cc2)C(=O)C1,0.506
21,CN(Cc1cccs1)C(=O)COc1cccc(-n2cnnn2)c1,-0.228
22,CN(c1cccc(NC(=O)c2ccc(Cl)c(S(=O)(=O)Nc3ccccc3)c2)c1)S(C)(=O)=O,0.229

row,Structure (SMILES),z-score
1,O=C(NC1CCCCC1)C12CC3CC(C1)CC(n1cncn1)(C3)C2,-0.163
2,Cc1nn(Cc2c(Cl)cccc2Cl)c(Cl)c1/C=N/NC(=O)c1cccnc1,-0.656
3,CCN(CC)c1ccc2c(c1)C(=O)N(C)C2=O,0.142
4,Cc1cc2nc(SCCOC(=O)Nc3cccc(Cl)c3)nc(C)c2cc1C,-0.19
5,Cc1cc(Cl)ccc1OCC(=O)NCCC(=O)O,0.939
6,CCOC(=O)CN1C(=O)C(Sc2nnc(-c3ccccc3OC)s2)CCc2ccccc21 (centres undefined),0.287
7,O=C1C(Cl)=C(N2CCCCCC2)C(=O)N1c1ccccc1,-0.402
8,COc1cc(C(=O)NCCC(C)C)ccc1OCc1ccc(Cl)cc1Cl,0.00586
9,Cc1c(C(=O)N2CCCCC2)nnn1-c1nonc1N,-0.565
10,CCCC(=O)C1=C(O)C(C(=O)OC)C(C)(C)CC1=NC(C)(C)C (centres undefined),-0.418
11,COc1cc(S(=O)(=O)N2CCCCC2)ccc1NC(=O)/C=C/c1ccccc1,-0.398
12,Cc1ccccc1N=CC=C1OC(C)(C)C(C)(C)O1,0.193
13,Cc1ccc(CNc2ncnc3cc(Cl)ccc23)o1,0.539
14,N#CC(/C(=N/S(=O)(=O)c1cccs1)c1ccccc1)c1nc2ccccc2[nH]1 (centres undefined),-0.494
15,FC(F)(F)c1nc2ccccc2nc1N/N=C/c1c(Cl)cccc1Cl,-0.227
16,CCn1c(-c2ccccc2)c(C(=O)O)c2ccccc21,-0.229
17,COc1ccccc1/C=C1\SC(=S)N(CCC(=O)NC2=NCCS2)C1=O,-0.0872
18,FC(F)(F)c1nnc2c(Sc3ccccc3)nc3ccccc3n12,0.155
19,CCN(CC)c1ccc(NC(=O)Cn2c(C(C)NC(=O)c3ccccc3)nc3ccccc32)cc1 (centres undefined),-0.332
20,Cc1cc(O)ccc1C1(c2ccc(O)cc2C)OC(=O)c2ccccc21,-1.95
21,Cn1c(SC(C(=O)Nc2ccc(F)cc2)c2ccccc2)nc2ccccc21 (centres undefined),0.038
